# PubChem BioAssay AID1645882 (National Center for Advancing Translational Sciences (NCATS), 2021)
# Hit rate of the full screen: of about 16,000 compounds, about 120 (0.75%) were called active. About 4% were inconclusive and are not listed. The call rests on the fitted dose curve; in most records, active means well fitted inhibition curve with a large enough effect; inconclusive means small, poorly fitted or top-dose-only effect; inactive means no such curve, though single readings can be large or run the other way. The list shows a part of the results.
# Target: Rap guanine nucleotide exchange factor 3 (Homo sapiens) (UniProt O95398)
# Sequence of UniProt O95398 (O95398 whole entry, looked up): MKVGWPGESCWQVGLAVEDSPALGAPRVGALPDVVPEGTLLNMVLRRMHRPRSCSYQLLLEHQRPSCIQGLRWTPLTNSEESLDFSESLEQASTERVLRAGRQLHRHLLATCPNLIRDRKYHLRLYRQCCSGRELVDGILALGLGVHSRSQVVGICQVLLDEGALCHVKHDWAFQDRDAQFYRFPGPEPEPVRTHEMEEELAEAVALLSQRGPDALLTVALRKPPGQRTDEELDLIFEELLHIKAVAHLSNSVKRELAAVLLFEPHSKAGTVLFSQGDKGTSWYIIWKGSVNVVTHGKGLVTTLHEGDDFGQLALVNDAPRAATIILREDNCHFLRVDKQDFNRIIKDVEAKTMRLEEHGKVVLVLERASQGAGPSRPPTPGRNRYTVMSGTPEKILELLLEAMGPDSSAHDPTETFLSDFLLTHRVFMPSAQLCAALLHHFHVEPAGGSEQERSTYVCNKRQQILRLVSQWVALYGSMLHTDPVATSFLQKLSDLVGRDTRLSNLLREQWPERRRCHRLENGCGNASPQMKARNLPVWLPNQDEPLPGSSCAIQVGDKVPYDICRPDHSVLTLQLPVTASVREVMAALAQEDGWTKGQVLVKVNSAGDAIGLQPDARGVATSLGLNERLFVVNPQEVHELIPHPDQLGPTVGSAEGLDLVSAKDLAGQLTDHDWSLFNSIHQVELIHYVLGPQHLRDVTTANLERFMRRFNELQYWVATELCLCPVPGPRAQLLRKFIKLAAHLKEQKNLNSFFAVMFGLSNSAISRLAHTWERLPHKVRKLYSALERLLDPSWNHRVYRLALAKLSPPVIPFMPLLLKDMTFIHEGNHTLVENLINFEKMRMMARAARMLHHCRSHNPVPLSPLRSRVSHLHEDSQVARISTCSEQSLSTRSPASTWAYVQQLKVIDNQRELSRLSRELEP
# Experiment: Validation qHTS for antagonist of cAMP-regulated guanine nucleotide exchange factor 3 (EPAC1); further: nearly all actives have a fitted effect of over 75% in size
# Conditions: EPAC1 Rap1B-BODIPY-GDP exchange, fluorescence; series mostly up to 150 µM; activity change, negative = inhibition: at the top concentration
# From the text: Assay Provider (PI): Xiaodong Cheng Ph.D.
# The University of Texas Medical Branch, […], TX
# In multi-cellular eukaryotic organisms, the effects of cAMP are transduced by two ubiquitously-expressed intracellular cAMP receptors, the classic protein kinase A/cAMP-dependent protein kinase (PKA/cAPK) and the more recently discovered exchange protein directly activated by cAMP/cAMP-regulated guanine nucleotide exchange factor (EPAC/cAMP-GEF). Both PKA and EPAC are ubiquitously expressed in all tissues, and an increase in intracellular cAMP levels will lead to the activation of both PKA and EPAC. Therefore, careful dissections of the individual role and relative contribution of EPAC and PKA within the overall cAMP signaling in various model systems are critical for further elucidating the mechanism of cAMP signaling. To date no EPAC-specific antagonists and agonist, as well as isoform-specific agonists have been reported, and developing EPAC-specific pharmacological probes to determine the physiological functions that EPAC play in the overall cAMP-mediated signaling remains a major challenge within the research field. Furthermore, identified regulators of EPAC may lead to new mechanism-based therapeutic strategies specifically targeting the EPAC / cAMP-signaling components as EPAC has been implicated to play important roles in major human pathological conditions such as diabetes, heart disease, and cancer.
# This qHTS will be used to screen the Molecular Libraries Small Molecule Repository (MLSMR) as a concentration-titration series using the NCGC unique quantitative screening (qHTS) platform to find activators for EPAC1. In addition, this assay will also be used as a counterscreen for the EPAC2 qHTS. This fluorescent based assay is developed and validated for EPAC1 that measures exchange using EPAC effector Rap1 complex with BODIPY-GDP, a GDP analog with a tethered fluorophores. Activators are identified by monitoring the change in fluorescence signal as the exchanged free BODIPY-GDP has a reduced fluorescence compared to Rap1-bound BODIPY-GDP. Increase in signal (activation) is the desired outcome for the EPAC1 agonist while no activity in this assay is desired for the EPAC2 agonist counterscreen.
# [1] de Rooij, J., Zwartkruis, F. J., Verheijen, M. H., Cool, R. H., Nijman, S. M., Wittinghofer, A., and Bos, J.L. (1998) Nature 396, 474-477.
# Briefly, three uL of reagents (100 nM EPAC1, 250 nM RAP1B-BODIPY-GDP, 50 uM GDP) were dispensed into a 1536-well Greiner black solid-bottom medium binding assay plate. Controls and test compounds (23 nL) were transferred to the plate via a Kalypsys pin tool equipped with a 1536-pin array. The plates were centrifuged at 1,000 rpm for 15 seconds followed by 5 minute incubation at room temperature. The assay plates were read at 5 minute intervals for 30 minutes in the ViewLux plate reader using 480nm excitation and 540nm emission filters. The results were normalized to the […] positive control ATA and DMSO.
row,Structure (SMILES),"activity change, negative = inhibition"
1,N=C(N)n1cccn1,inactive: 16%
2,NCCO,inactive: 10.9% [at 320 µM]
3,O=C(c1ccco1)N1CCC2(CCCN(Cc3ccccc3)C2)CC1,inactive: 17.4%
4,COc1cccc(C2(CC(=O)N3CCCOc4c(cccc4OC)C3)CC(=O)N(C)C2=O)c1 (configuration not stated),inactive: 6.75%
5,Cc1ccc2c(CC(=O)N3CCOc4ccc(CN5C[C@@H](C)O[C@@H](C)C5)cc4C3)cc(=O)oc2c1,inactive: -1.79%
6,CC(C)C[C@@H](CO)N(Cc1ccccc1)S(=O)(=O)N(Cc1ccccc1)[C@@H](CO)CC(C)C,inactive: -25.4%
7,CCOC(=O)Nc1ccc2c(c1)N(C(=O)CCN1CCOCC1)c1ccccc1S2,inactive: -3.84% [at 75.8 µM]
8,CC(NC(=O)C1CCOCC1)c1nnc2n1CCN(Cc1cc3c(cc1Cl)OCO3)CC2 (configuration not stated),inactive: 0.753%
9,COCCn1c(=O)c(C)nc2cnc(OC)nc21,inactive: 15.5%
10,O=c1c(-c2ccc(O)cc2)coc2cc(O)cc(O)c12,inactive
11,O=c1cc(-c2cccc(O)c2O)oc2ccccc12,inactive: -21.7%
12,Cc1cn(C2CC(N=[N+]=[N-])C(CO)O2)c(=O)[nH]c1=O (configuration not stated),inactive: 25.7%
13,N[C@H](Cc1ccccc1)C(=O)O,inactive: 19.1%
14,COc1ccc(C2c3cc(OC)c(OC)cc3Cc3c4cc(OC)c(OC)cc4cc[n+]32)cc1OC (configuration not stated),inactive: 7.29%
15,Cc1ncc2c(c1CNS(=O)(=O)N(C)C)CCN(C(=O)c1c(F)cccc1F)C2,inactive: 12%
16,COc1ccccc1CNc1ncnc2ccc(-c3ccccc3CN(C)C)cc12,inactive: 9.84%
17,Nc1c2c(nc3c1CCC3)CCCC2,inactive: -3.38%
18,COCC(=O)N1CCC2(CCN(Cc3nccs3)CC2)CC1,inactive: 16.1%
19,Cc1c(N)nc(C(CC(N)=O)NCC(N)C(N)=O)nc1C(=O)NC(C(=O)NC(C)C(O)C(C)C(=O)NC(C(=O)NCCc1nc(-c2nc(C(=O)NCCCN[C@@H](C)c3ccccc3)cs2)cs1)C(C)O)C(O[C@@H]1O[C@@H](CO)[C@@H](O)[C@H](O)[C@@H]1O[C@H]1O[C@H](CO)[C@@H](O)[C@H](OC(N)=O)[C@@H]1O)c1cnc[nH]1 (some centres not stated),inactive: 24.8%
20,Cc1noc(C)c1C(=O)N1CCC2(CC1)CN(c1ccccc1)C2,inactive: 15.9%
21,COc1ccc(/C=C/C(=O)c2ccc(C)s2)cc1,inactive: -0.912%
22,COC(=O)[C@H](C)NS(=O)(=O)C1CC1,inactive: -8.7%
23,CN(CCOc1ccc(NS(C)(=O)=O)cc1)CCc1ccc(NS(C)(=O)=O)cc1,inactive: 17.9%
24,COc1ccc(NC(=O)N2CCC3(CC2)CCN(C(=O)c2ccco2)CC3)cc1,inactive: 25.8%
25,COc1cc(=O)n2c(c1C(=O)NC(C)c1ccco1)CCN(C(=O)c1ccnc(Cl)c1)CC2 (configuration not stated),inactive: 12.4%
26,COc1cc(C2c3cc4c(cc3C(OC3OC5COC(C)O[C@@H]5C(O)C3O)C3COC(=O)C23)OCO4)cc(OC)c1O (some centres not stated),inactive: 11.2%

row,Structure (SMILES),"activity change, negative = inhibition"
1,C#C[C@]1(O)CC[C@H]2[C@@H]3CCc4cc(OC)ccc4[C@H]3CC[C@@]21C,inactive: 14%
2,CC(N)(Cc1ccc(O)cc1)C(=O)O (configuration not stated),inactive: 7.97% [at 75.8 µM]
3,CC(C)NCC(O)c1ccc(NS(C)(=O)=O)cc1 (configuration not stated),inactive
4,O=C(Oc1ccccc1)N1CCC2(CC1)CCN(c1ccncc1)CC2,inactive: 15.1%
5,CC1=C(C)C(=O)C(CCCCC#CCCCC#CCO)=C(C)C1=O,inactive
6,O=c1c(-c2ccc(F)cc2)nc2cnc(Nc3ccccc3)nc2n1C1CC1,inactive: 6.07%
7,CN(C)CCCCSC(=N)N,inactive
8,COC(=O)c1ccc(-c2cccc3c2OC(CNC(=O)/C=C/c2ccc(OC)c(OC)c2)C3)nc1 (configuration not stated),inactive: -8.39%
9,COc1cc(C=O)ccc1O,inactive
10,O=c1c(-c2ccccc2)nc2cnc(N3CCNCC3)nc2n1C1CC1,inactive: 23.5%
11,CC(C)c1c(C(=O)NCC(C)(C)N2CCOCC2)cnn1-c1nccc(-c2cccs2)n1,inactive: 13%
12,COC(=O)c1ccc2nc3c(cc2c1)[C@@H]1CCN2C(=O)CCC[C@H](C3)[C@H]12,inactive: 20.6%
13,CCCN(C/C=C\I)[C@@H]1CCc2cccc(O)c2C1,inactive: 0.679%
14,Cc1nc2cnc(N3CCNCC3)nc2n(Cc2cccs2)c1=O,inactive: -0.201%
15,O=C(C(=O)N1CCOc2ccc(CN3CCN(Cc4ccccn4)CC3)cc2C1)c1ccccc1,inactive: 6.82%
16,CCCCCCCCCCCCCCCC[N+](C)(C)CCN(Cc1ccc(OC)cc1)c1ncccn1,inactive: -0.628% [at 75.8 µM]
17,Cc1cccc(CNc2nc(-c3ccccc3CN(C)C)nc3ccccc23)c1,inactive: 25.4%
18,O=S1(=O)CCOC[C@H](CC2CCCCC2)N1Cc1cccc(F)c1,inactive: 16.4%
19,O=C(O)P(=O)(O)O,inactive: -8.97%
20,COc1ccc(-n2c(=O)cnc3cnc(Oc4cccc(Cl)c4)nc32)cc1,inactive: 7.33%
21,CC(C)C(NC(=O)c1ccccn1)c1nnc2n1CCN(Cc1ccc3ccccc3c1)CC2 (configuration not stated),inactive: 5.18%
22,CS(=O)(=O)N1CCC2(CC1)CN(C(=O)Nc1ccccc1)C2,inactive: 5.38%
23,COc1ccccc1CCn1c(=O)c(-c2ccc(F)c(F)c2)nc2cncnc21,inactive: -1.95%
24,CCN(CC)CCCC(C)Nc1c2ccc(Cl)cc2nc2ccc(OC)cc12 (configuration not stated),inactive
25,OCC1OC(Oc2cccc3cccnc23)C(O)C(O)C1O (configuration not stated),inactive: -4.88%
26,COc1ccccc1CNc1nc(-c2c(C)noc2C)nc2ccccc12,inactive: -14.8%
